# Results: PubChem BioAssay AID720709 (National Center for Advancing Translational Sciences (NCATS), 2013)
# Out of some 360,000 compounds screened, about 520 (0.14%) were called active. The inconclusive results got no clear call from the source; some entries with a clear call stand among them for comparison. Calls follow the shape of the dose curve; as a rule, active = well fitted inhibition curve with a large enough effect; inconclusive = small, poorly fitted or top-dose-only effect; inactive = no such curve, though single readings can be large or run the other way. Potencies of inconclusive entries are left out as doubtful fits.
# Biological target: Rap guanine nucleotide exchange factor 3 (Homo sapiens) (UniProt O95398)
# Experiment: qHTS for Antagonist of cAMP-regulated guanine nucleotide exchange factor 3 (EPAC1): primary screen; also: nearly all actives have a fitted effect of over 50% in size;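 as to activity change, negative = inhibition: plate controls were vehicle for no effect and positive control for full effect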
# Details: EPAC1 GEF assay, Rap1b-BODIPY-GDP exchange fluorescence; activity change, negative = inhibition: at 115 µM (top of the series)
# Potency is read from the fitted curve at half-maximal effect; tags tell the direction and shape of the fitted curve.
# Chain of UniProt O95398 (O95398 whole entry, looked up): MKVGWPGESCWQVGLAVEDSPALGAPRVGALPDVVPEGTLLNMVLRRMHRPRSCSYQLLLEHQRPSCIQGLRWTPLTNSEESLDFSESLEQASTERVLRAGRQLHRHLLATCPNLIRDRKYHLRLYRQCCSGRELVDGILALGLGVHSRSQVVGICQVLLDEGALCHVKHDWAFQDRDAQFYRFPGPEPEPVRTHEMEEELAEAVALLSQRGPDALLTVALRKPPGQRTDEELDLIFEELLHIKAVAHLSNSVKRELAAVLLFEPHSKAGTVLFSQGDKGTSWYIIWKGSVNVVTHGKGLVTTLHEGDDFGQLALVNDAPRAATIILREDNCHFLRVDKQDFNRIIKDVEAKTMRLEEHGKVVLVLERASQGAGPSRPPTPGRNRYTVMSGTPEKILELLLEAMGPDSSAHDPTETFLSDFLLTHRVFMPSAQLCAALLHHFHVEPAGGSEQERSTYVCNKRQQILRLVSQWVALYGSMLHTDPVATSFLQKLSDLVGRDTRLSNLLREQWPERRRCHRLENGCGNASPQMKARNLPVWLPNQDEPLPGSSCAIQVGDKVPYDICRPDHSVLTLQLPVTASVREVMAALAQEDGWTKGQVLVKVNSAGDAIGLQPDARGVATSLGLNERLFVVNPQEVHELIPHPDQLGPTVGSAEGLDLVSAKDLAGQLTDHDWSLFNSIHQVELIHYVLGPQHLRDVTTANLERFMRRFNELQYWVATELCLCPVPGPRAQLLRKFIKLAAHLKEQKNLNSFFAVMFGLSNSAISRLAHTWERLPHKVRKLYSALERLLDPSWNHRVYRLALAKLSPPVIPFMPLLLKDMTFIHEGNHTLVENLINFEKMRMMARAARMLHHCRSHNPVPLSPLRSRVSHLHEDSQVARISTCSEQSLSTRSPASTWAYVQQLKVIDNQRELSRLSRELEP
SMILES,Potency,"activity change, negative = inhibition"
CCc1ccccc1NC(=O)CN1CCN(CC(=O)Nc2ccc3c(c2)OC2(CCCCC2)O3)CC1,"inconclusive [inhibitor, partial curve]",
CC1CN(C(=O)c2ccccc2NS(=O)(=O)c2cccc([N+](=O)[O-])c2)CC(C)O1 (stereo unspecified),inactive,
CC1Sc2ccc(S(=O)(=O)N3CCN(c4cccc(Cl)c4)CC3)cc2NC1=O (stereo unspecified),"inconclusive [inhibitor, single point]",
CCOc1ccc(NC2c3ccccc3C(=O)N2Cc2ccco2)cc1 (stereo unspecified),"inconclusive [inhibitor, single point]",
O=C(NCc1ccc2c(c1)OCO2)c1nc(S(=O)(=O)Cc2ccccc2)ncc1Cl,"inconclusive [inhibitor, single point]",
Cc1cc2nc(-c3ccco3)c(Cc3cccc(F)c3)n2c(C)c1Br,"inconclusive [inhibitor, single point]",
CC(NC(=O)CN(C)S(=O)(=O)c1ccc2c(c1)c(=O)n(C)c(=O)n2C)c1ccccc1 (stereo unspecified),"inconclusive [inhibitor, full curve, poor fit]",
CCNC(=O)C(C)NC(=O)C1=NN(c2ccccc2)C(=O)CC1 (stereo unspecified),"inconclusive [inhibitor, full curve]",
Clc1ccc(CSc2ccc(-c3ccco3)nn2)cc1,inactive,
CC(=O)N(/N=C1\Sc2ccccc2C1=O)c1ccccc1C,inactive,
O=C(CN1CC(c2ccccc2)CC1=O)N/N=C/c1cc(Br)ccc1O (stereo unspecified),,inconclusive: -30.5% [inhibitor]
CC(=O)Nc1ccc(S(=O)(=O)Nc2nc3ccccc3nc2Nc2ccc(N)cc2)cc1,"inconclusive [inhibitor, single point]",
CCOC(=O)C1=C(COc2ccccc2)NC(=O)NC1c1ccc(Br)cc1 (stereo unspecified),"inconclusive [inhibitor, single point]",
CC(=O)c1cccc(Nc2nc(-c3ccccc3)cs2)c1,"inconclusive [inhibitor, full curve, poor fit]",
c1cncc(-c2nnc(C3CCCCC3)o2)c1,inactive,
COc1ccc(CN2C(=O)c3cccc4cccc2c34)cc1F,inactive,
C1CCc2nc3c(nc2C1)CCCC3,inactive,
Cc1ccc(OC(C)C(=O)Nc2ccc(F)cc2)c([N+](=O)[O-])n1 (stereo unspecified),"inconclusive [inhibitor, single point]",
Cc1ccc(S(=O)(=O)Nc2cc(C(C(=O)OC(C)C)C(=O)C(F)(F)F)c(O)c3ccccc23)c(C)c1 (stereo unspecified),"inconclusive [inhibitor, partial curve]",
COc1ccccc1C(=O)Nc1cc(-c2ccc(C)cc2)no1,"inconclusive [inhibitor, single point]",
S=c1[nH]c(-c2ccccc2)cn1/N=C/c1cccnc1,inactive,
CCOC(=O)c1c(C)[nH]c(C)c1S(=O)(=O)N1CCN(c2ccc([N+](=O)[O-])cc2)CC1,"inconclusive [inhibitor, full curve, poor fit]",

SMILES,Potency,"activity change, negative = inhibition"
Cc1cccc(Nc2nc(N)c([N+](=O)[O-])c(NCc3ccccc3)n2)c1,"inconclusive [inhibitor, partial curve, poor fit]",
O=C(COc1ccccc1C(=O)N/N=C\c1ccc(O)c(O)c1)N/N=C/c1ccc(O)c(O)c1,active: 10 µM,
CCOc1ccccc1C1C(C#N)=C(N)SC(N)=C1C#N,inactive,
O=C(N[C@@H](Cc1ccc(Br)cc1)C(=O)O)OCC1c2ccccc2-c2ccccc21,"inconclusive [inhibitor, full curve]",
CN(C(=O)COC(=O)c1cc(-c2ccco2)nc2ccccc12)C1CCS(=O)(=O)C1 (stereo unspecified),"inconclusive [inhibitor, full curve, poor fit]",
O=C(c1cc2ccccc2o1)c1cccs1,"inconclusive [inhibitor, single point]",
N=C1/C(=C/c2ccc(Br)o2)C(=O)N=C2SC(CC(=O)N3CCCC3)=NN12,"inconclusive [inhibitor, partial curve]",
O=C(CSc1ncccc1C(=O)O)c1ccc2ccccc2c1,inactive,
CN(Cc1ccon1)Cc1cn(C)nc1-c1ccc(Oc2ccccc2)cc1,"inconclusive [inhibitor, single point]",
O=c1[nH]c(Nc2ccccc2)cc2cc(Br)ccc12,"inconclusive [inhibitor, full curve]",
S=C(NCc1ccc(Cl)cc1Cl)NC1CCCCC1,inactive,
O=C(COc1ccc(-c2nnco2)cc1)N1CCN(S(=O)(=O)c2ccc3ccccc3c2)CC1,"inconclusive [inhibitor, single point]",
COCCNC(=O)c1cc(C)ccc1C,"inconclusive [inhibitor, single point]",
CCOc1ccc(-c2nc(N)ncc2-c2ccccc2OC)c(O)c1,"inconclusive [inhibitor, full curve, poor fit]",
COc1ccc(C(=O)N(NC(=O)Oc2ccccc2)C(C)(C)C)cc1,,inconclusive: -9.31% [inhibitor]
COc1cc2c(C(=O)N3CCOCC3)c(CSc3ccccc3)n(C)c2cc1Br,"inconclusive [inhibitor, partial curve, poor fit]",
CCOc1ccc(/C=N/NC(=O)c2csc(C)c2C)c(OCC)c1,inactive,
Cc1ccc(C2=NOC(=O)/C2=C\C=C\c2ccccc2)cc1,"inconclusive [inhibitor, partial curve, poor fit]",
CCN(C(=O)COC(=O)C1CC1)c1c(N)n(Cc2ccccc2)c(=O)[nH]c1=O,"inconclusive [inhibitor, full curve, poor fit]",
CN(C)c1cc[n+](Cc2c(Cl)cccc2Cl)cc1,"inconclusive [inhibitor, single point]",
O=C(c1ccc(Cl)cc1)C(CN1CCCC1)c1ccccc1 (stereo unspecified),"inconclusive [inhibitor, partial curve]",
O=c1c(-c2ccc([N+](=O)[O-])cc2)coc2c(O)c(O)ccc12,"inconclusive [inhibitor, partial curve]",

SMILES,Potency,"activity change, negative = inhibition"
Cc1ccc(NCC(=O)N=Nc2c(O)[nH]c3ccc([N+](=O)[O-])cc23)cc1,"inconclusive [inhibitor, partial curve]",
Cc1[nH]c2ccc(C(=O)OC(C)C(=O)NCc3ccccc3)cc2c1C (stereo unspecified),inactive,
O=C(CSc1nnc2ccccn12)NC(=O)c1ccccc1Cl,inactive,
CCSc1ccccc1C(=O)N1CCC2(CC1)CC(=O)c1ccccc1O2,"inconclusive [inhibitor, partial curve]",
CCCCOc1ccc(NS(=O)(=O)c2ccc(-n3cnnn3)cc2)cc1,"inconclusive [inhibitor, full curve, poor fit]",
CCOC(=O)CCC(=O)NNC(=O)COc1ccc(C(C)C)cc1Br,"inconclusive [inhibitor, full curve]",
Cc1nc2c3cc(F)ccc3n(Cc3ccccc3F)c2s1,inactive,
CC(C)CN(CC(C)C)C(=S)NC1CCCCC1,inactive,
O=C(/C=C/c1ccccc1)NC(NC(=S)Nc1cccc(O)c1)C(Cl)(Cl)Cl (stereo unspecified),"inconclusive [inhibitor, single point]",
Cc1ccc(C2(c3noc(CN(C)CCO)n3)CCCC2)cc1,"inconclusive [inhibitor, partial curve]",
c1ccc(C2CC3CC(c4ccccc4)N2O3)cc1 (stereo unspecified),"inconclusive [inhibitor, partial curve]",
CS(=O)(=O)N(CC(=O)N/N=C/c1cc([N+](=O)[O-])ccc1Cl)c1ccccc1,"inconclusive [inhibitor, partial curve]",
Cc1cc(C)c(C)c(S(=O)(=O)N[C@@H](C)C(=O)OCc2cc(=O)n3cc(Br)ccc3n2)c1C,"inconclusive [inhibitor, partial curve]",
CC(Oc1ccc(Cl)cc1Cl)C(=O)NCCC1=CCCCC1 (stereo unspecified),"inconclusive [inhibitor, full curve, poor fit]",
CNC[C@@H]1Oc2cc(Br)ccc2S(=O)(=O)N([C@@H](C)CO)C[C@H]1C,"inconclusive [inhibitor, full curve, poor fit]",
CNC(=O)c1c(NC(=O)c2ccco2)sc2c1CCC2,inactive,
COCCN(C(=O)c1ccc(N(C)S(=O)(=O)c2ccc(C)cc2)cc1)c1c(N)n(CC(C)C)c(=O)[nH]c1=O,inactive,
CC(C)(C)OC(=O)COc1cc(OCC(=O)OC(C)(C)C)c2c(=O)cc(-c3ccccc3)oc2c1,"inconclusive [inhibitor, partial curve]",
O=C(NCc1ccc(Cl)cc1)C(=O)NCC(c1cccnc1)N1CCN(c2ccc(F)cc2)CC1 (stereo unspecified),"inconclusive [inhibitor, partial curve]",
CCC(C)c1ccc(NC(=O)COc2c(F)c(F)c(C(F)(F)F)c(F)c2F)cc1 (stereo unspecified),"inconclusive [inhibitor, partial curve]",
CC(=O)c1ccc(-c2ccc(C(=O)N(C)c3c(N)n(Cc4ccccc4)c(=O)[nH]c3=O)o2)cc1,"inconclusive [inhibitor, single point]",
O=C(/C=C/c1ccc([N+](=O)[O-])cc1)OCC(=O)N1c2ccccc2Sc2ccccc21,"inconclusive [inhibitor, partial curve, poor fit]",
